In patent US10299477B2 (priority 2015, dated 2019):

Test system: Phytophthora infestans
Assay type: in vivo
Conditions: for Test F (control value class, late blight on tomato): 250 ppm, sprayed 2.5 ml/pot before inoculation, evaluated 5-10 days after inoculation

Structure (SMILES) | Test F (control value class) (late blight on tomato, Phytophthora infestans, 250 ppm spray, 5-10 days after inoculation) | Test F (control value class, late blight on tomato)
CCCCN1C(=O)CCC(c2cc(OC)ccc2Cl)=C1c1c(F)cccc1F [Compound 390] | L (L shows 50% or less of control values) | –
COc1cc(F)c(-c2c(-c3ccc(F)cc3Cl)cc(Cl)c(=O)n2C)c(F)c1 [Compound 600] | – | L (L shows 50% or less of control values)
CCn1c(-c2c(F)cc(Cl)cc2F)c(-c2cc(F)ccc2Cl)ccc1=O [Compound 601] | – | L (L shows 50% or less of control values)
CCn1c(-c2c(F)cc(Cl)cc2F)c(-c2cc(F)ccc2Cl)cc(Cl)c1=O [Compound 602] | – | L (L shows 50% or less of control values)
CCn1c(-c2c(F)cc(Cl)cc2F)c(-c2cc(F)ccc2Cl)cc(Br)c1=O [Compound 603] | – | L (L shows 50% or less of control values)
Cn1c(-c2c(F)cc(Cl)cc2F)c(-c2cc(F)ccc2Cl)ccc1=O [Compound 604] | – | L (L shows 50% or less of control values)
Cn1c(-c2c(F)cc(Cl)cc2F)c(-c2cc(F)ccc2Cl)cc(Cl)c1=O [Compound 605] | – | L (L shows 50% or less of control values)
Cn1c(-c2c(F)cc(Cl)cc2F)c(-c2cc(F)ccc2Cl)cc(Br)c1=O [Compound 606] | – | L (L shows 50% or less of control values)
O=c1ccc(-c2cc(F)cc(F)c2Cl)c(-c2c(F)cc(F)cc2F)n1CC(F)F [Compound 607] | – | L (L shows 50% or less of control values)
O=c1c(Cl)cc(-c2cc(F)cc(F)c2Cl)c(-c2c(F)cc(F)cc2F)n1CC(F)F [Compound 608] | – | L (L shows 50% or less of control values)
CCn1c(-c2c(F)cc(F)cc2F)c(-c2cccc(F)c2F)cc(C)c1=O [Compound 609] | – | L (L shows 50% or less of control values)
CCn1c(-c2c(F)cc(OC)cc2F)c(-c2cccc(F)c2F)cc(C)c1=O [Compound 610] | – | L (L shows 50% or less of control values)
CCOc1cc(F)c(-c2c(-c3cccc(F)c3F)cc(C)c(=O)n2CC)c(F)c1 [Compound 611] | – | L (L shows 50% or less of control values)
CCOc1cc(F)c(-c2c(-c3ccc(F)cc3Cl)ccc(=O)n2C)c(F)c1 [Compound 612] | – | H (H shows more than 50% of control values)
Cc1cc(-c2ccc(F)cc2Cl)c(-c2c(F)cc(F)cc2F)n(C)c1=O [Compound 613] | – | L (L shows 50% or less of control values)
CCN1C(=O)CCC(c2cc(OC)cc(F)c2Cl)=C1c1c(F)cc(F)cc1F [Compound 614] | – | L (L shows 50% or less of control values)
CCn1c(-c2c(F)cc(F)cc2F)c(-c2cc(OC)cc(F)c2Cl)ccc1=O [Compound 615] | – | L (L shows 50% or less of control values)
CCOc1cc(F)c(-c2c(-c3ccc(F)cc3Cl)cc(Cl)c(=O)n2C)c(F)c1 [Compound 616] | – | L (L shows 50% or less of control values)
CCn1c(-c2c(F)cc(F)cc2F)c(-c2cc(OC)cc(F)c2Cl)cc(Cl)c1=O [Compound 617] | – | L (L shows 50% or less of control values)
CCn1c(-c2c(F)cc(F)cc2F)c(-c2cccc(OC)c2Cl)ccc1=O [Compound 618] | – | L (L shows 50% or less of control values)
CCn1c(-c2c(F)cc(F)cc2F)c(-c2cccc(OC)c2Cl)cc(Cl)c1=O [Compound 619] | – | L (L shows 50% or less of control values)

Structure (SMILES) | Test F (control value class) (late blight on tomato, Phytophthora infestans, 250 ppm spray, 5-10 days after inoculation) | Test F (control value class, late blight on tomato)
CCn1c(-c2c(F)cc(F)cc2F)c(-c2cccc(OC)c2Cl)cc(Br)c1=O [Compound 620] | – | L (L shows 50% or less of control values)
COc1cc(F)c(-c2c(-c3ccc(F)cc3Cl)cc(C)c(=O)n2C)c(F)c1 [Compound 621] | – | L (L shows 50% or less of control values)
CCN1C(=O)CCC(c2ccc(Br)cc2Cl)=C1c1c(F)cc(F)cc1F [Compound 622] | – | L (L shows 50% or less of control values)
CCn1c(-c2c(F)cc(OC)cc2F)c(-c2cc(OC)cc(F)c2Cl)ccc1=O [Compound 623] | – | L (L shows 50% or less of control values)
CCn1c(-c2c(F)cc(F)cc2F)c(-c2ccc(Br)cc2Cl)ccc1=O [Compound 624] | – | H (H shows more than 50% of control values)
CCn1c(-c2c(F)cc(F)cc2F)c(-c2ccc(Br)cc2Cl)cc(Cl)c1=O [Compound 625] | – | L (L shows 50% or less of control values)
CCn1c(-c2c(F)cc(F)cc2F)c(-c2ccc(C)cc2Cl)ccc1=O [Compound 626] | – | L (L shows 50% or less of control values)
CCn1c(-c2c(F)cc(OC)cc2F)c(-c2cc(OC)cc(F)c2Cl)cc(Cl)c1=O [Compound 627] | – | L (L shows 50% or less of control values)
CCn1c(-c2c(F)cc(F)cc2F)c(-c2ccc(C)cc2Cl)cc(Cl)c1=O [Compound 628] | – | L (L shows 50% or less of control values)
CCn1c(-c2c(F)cccc2F)c(-c2ccc(F)cc2F)ccc1=O [Compound 629] | – | L (L shows 50% or less of control values)
CCn1c(-c2c(F)cccc2F)c(-c2ccc(F)cc2F)cc(Cl)c1=O [Compound 630] | – | L (L shows 50% or less of control values)
Cn1c(-c2c(F)cccc2F)c(-c2ccc(F)cc2F)ccc1=O [Compound 631] | – | L (L shows 50% or less of control values)
CCn1c(-c2c(F)cc(F)cc2F)c(-c2cccc(OC)c2Cl)cc(C)c1=O [Compound 632] | – | L (L shows 50% or less of control values)
CCn1c(-c2c(F)cc(OC)cc2F)c(-c2cccc(OC)c2Cl)ccc1=O [Compound 633] | – | H (H shows more than 50% of control values)
CCOc1cc(F)c(-c2c(-c3cccc(OC)c3Cl)ccc(=O)n2CC)c(F)c1 [Compound 634] | – | H (H shows more than 50% of control values)
CCn1c(-c2c(F)cc(F)cc2F)c(-c2cc(F)c(F)cc2F)ccc1=O [Compound 635] | – | L (L shows 50% or less of control values)
CCn1c(-c2c(F)cc(F)cc2F)c(-c2cc(F)c(F)cc2F)cc(Cl)c1=O [Compound 636] | – | L (L shows 50% or less of control values)
CCn1c(-c2c(F)cc(OC)cc2F)c(-c2cc(F)c(F)cc2F)cc(Cl)c1=O [Compound 637] | – | L (L shows 50% or less of control values)
CCn1c(-c2c(F)cc(OC)cc2F)c(-c2cc(F)c(F)cc2F)ccc1=O [Compound 638] | – | L (L shows 50% or less of control values)
Cn1c(-c2c(F)cc(F)cc2F)c(-c2cc(F)c(F)cc2F)ccc1=O [Compound 639] | – | L (L shows 50% or less of control values)
CCn1c(-c2c(F)cc(OC)cc2F)c(-c2cccc(OC)c2Cl)cc(Cl)c1=O [Compound 640] | – | L (L shows 50% or less of control values)
